# Source: PubChem BioAssay AID686970 (National Center for Advancing Translational Sciences (NCATS), 2013)
# Among all 360,000 compounds or so, about 6,000 (1.7%) were called active. Inconclusive means that the source gave no clear call. Such entries were picked first, then a sample of the others. Calls come from the whole dose curve; as a rule, active = well fitted cell-killing curve with a large enough effect; inconclusive = small, poorly fitted or top-dose-only effect, or effect the other way; inactive = flat fitted curve, though single readings scatter. No potency is given beside an inconclusive call; the fits are too rough.
# Test: qHTS for induction of synthetic lethality in tumor cells producing 2HG: qHTS for the HT-1080-NT fibrosarcoma cell line;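 note: NT is the 2HG producing partner of a matched IDH1 knockdown line; nearly all actives have a fitted effect of over 55% in size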;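 for activity, negative = less viability: 0% = DMSO-treated cells and -100% = media-only wells without cells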
# Settings: HT-1080-NT fibrosarcoma viability, CellTiter-Glo ATP luminescence, 48 h; activity, negative = less viability: at 46.1 µM (top of the series) unless noted
# Summary of the method: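 Viability by CellTiter-Glo luminescence after 48 h compound exposure at 37C of HT-1080-NT cells (750/well, RPMI, 5% FBS). % activity scaled between DMSO wells and medium-only wells, then curve-fitted and categorized by curve class.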
# Potency is the fitted concentration of half-maximal effect; tags give direction and shape of the fitted curve.
SMILES,Potency,"activity, negative = less viability"
NS(=O)(=O)c1cccc(NS(=O)(=O)c2ccc(/C=C/C(=O)OCC(=O)c3ccccc3)cc2)c1,"inconclusive [cytotoxic, single point]",–
CCCCCCCCCc1conc1C(=O)CP(=O)(OC)OC,"inconclusive [cytotoxic, single point]",–
C[C@H]1CN([C@@H](C)CO)C(=O)Cc2cc(NC(=O)CCC(F)(F)F)ccc2O[C@H]1CN(C)S(=O)(=O)c1ccc(F)cc1,active: 11.6 µM,–
Cc1ccc(S(=O)(=O)N(CC(=O)Nc2cccnc2)c2cccc(Br)c2)cc1,"inconclusive [cytotoxic, single point]",–
CCOc1ccccc1N1CCN(Cc2ccco2)CC1,–,inactive: -19.1%
CC(C)(C)Cc1c(-c2ccc(Br)cc2)nc2ccc(Br)cn12,"inconclusive [cytotoxic, single point]",–
CCn1c(SCc2nc3ccccc3[nH]2)nnc1-c1ccccc1OC,–,inactive: -1.22%
O=C1C(Cl)=C(NCCCO)C(=O)c2ccccc21,"inconclusive [cytotoxic, partial curve]",–
COc1ccc(CCNC(=O)C(=O)NCC2OCCN2S(=O)(=O)c2ccc(Cl)cc2)cc1 (centres undefined),–,inactive: -20.7%
COc1ccccc1NC(=O)Nc1ccc(Cl)c(S(=O)(=O)Nc2ccccc2OC)c1,–,inactive: -0.714%
C=CCn1c(=N)n(CC(=O)c2ccc(Br)cc2)c2ccccc21,"inconclusive [cytotoxic, single point]",–
Cc1ccc(NC(=O)Nc2nnc(Cc3ccc([N+](=O)[O-])cc3)s2)cc1C,"inconclusive [cytotoxic, single point]",–
CCCCNC(=O)C[C@@H]1C[C@@]2(C(=O)OCC)CCCC=C2N(Cc2ccc(Cl)cc2Cl)C1=O,"inconclusive [cytotoxic, partial curve, poor fit]",–
COc1ccc(C(=O)NCCn2ccc3ccccc32)c(OC)c1,"inconclusive [cytotoxic, single point]",–
CCOC(=O)C1CCN(C2CC(=O)N(c3cccc(Cl)c3)C2=O)CC1 (centres undefined),–,inactive: 2.64%
Cc1ccc(C(=O)NNC(=O)CCN2C(=O)C3CCCCC3C2=O)cc1 (centres undefined),–,inactive: 7.28%
O=C1C(=O)N(C/C=C/c2ccccc2)c2ccccc21,"inconclusive [cytotoxic, partial curve]",–
COc1ccc(C)c(Cn2c(-c3nonc3N)nc3ccccc32)c1,"inconclusive [cytotoxic, full curve]",–
CC1(c2ccc(OC(F)F)cc2)NC(=O)N(CC(=O)Nc2ccc(F)cc2)C1=O (centres undefined),–,inconclusive: -30.7% [cytotoxic]
